Results as given in article PMC9911399, “Two distinct binding modes provide the RNA-binding protein RbFox with extraordinary sequence specificity”.
Numbering of substitutions follows the chain as printed; changes in the protein carry UniProt numbers. The list shows a part of the results.

T1: RBFOX1 RRM (Homo sapiens, UniProt Q9NWB1 109-208)
T1 sequence: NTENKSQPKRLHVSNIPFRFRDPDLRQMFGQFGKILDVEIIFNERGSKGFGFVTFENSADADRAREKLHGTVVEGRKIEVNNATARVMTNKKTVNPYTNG

B1: GUCAUCG (DNA:RNA)
RNA: GGGAGACCGGAAUUCAGAUUGUCCGUCAUCGUUAAAUCCCGUCGUAGCCACCA
DNA 1: CAATCTGAATTCCGGTCTCCC
DNA 2: TGGTGGCTACGACGGGATT
B2: GAUAAUG (DNA:RNA)
RNA: B1 RNA with U26A, C27U, U29A, C30U
DNA 1: CAATCTGAATTCCGGTCTCCC
DNA 2: TGGTGGCTACGACGGGATT
B3: ACGCGCA (DNA:RNA)
RNA: B1 RNA with G25A, U26C, C27G, A28C, U29G, G31A
DNA 1: CAATCTGAATTCCGGTCTCCC
DNA 2: TGGTGGCTACGACGGGATT
B4: UUAGGGG (DNA:RNA)
RNA: B1 RNA with G25U, C27A, A28G, U29G, C30G
DNA 1: CAATCTGAATTCCGGTCTCCC
DNA 2: TGGTGGCTACGACGGGATT
B5: AACGUCA (DNA:RNA)
RNA: B1 RNA with G25A, U26A, A28G, G31A
DNA 1: CAATCTGAATTCCGGTCTCCC
DNA 2: TGGTGGCTACGACGGGATT
B6: UCGAAAC (DNA:RNA)
RNA: B1 RNA with G25U, U26C, C27G, U29A, C30A, G31C
DNA 1: CAATCTGAATTCCGGTCTCCC
DNA 2: TGGTGGCTACGACGGGATT
B7: GAGAGCG (DNA:RNA)
RNA: B1 RNA with U26A, C27G, U29G
DNA 1: CAATCTGAATTCCGGTCTCCC
DNA 2: TGGTGGCTACGACGGGATT
B8: CCUUUGG (DNA:RNA)
RNA: B1 RNA with G25C, U26C, C27U, A28U, C30G
DNA 1: CAATCTGAATTCCGGTCTCCC
DNA 2: TGGTGGCTACGACGGGATT
B9: GACUUCC (DNA:RNA)
RNA: B1 RNA with U26A, A28U, G31C
DNA 1: CAATCTGAATTCCGGTCTCCC
DNA 2: TGGTGGCTACGACGGGATT
B10: AUAUUGA (DNA:RNA)
RNA: B1 RNA with G25A, C27A, A28U, C30G, G31A
DNA 1: CAATCTGAATTCCGGTCTCCC
DNA 2: TGGTGGCTACGACGGGATT
B11: GCGGACG (DNA:RNA)
RNA: B1 RNA with U26C, C27G, A28G, U29A
DNA 1: CAATCTGAATTCCGGTCTCCC
DNA 2: TGGTGGCTACGACGGGATT
B12: UGGCAGU (DNA:RNA)
RNA: GGGAGACCGGAAUUCAGAUUGUCCUGGCAGUUUAAAUCCCGUCGUAGCCACCA
DNA 1: CAATCTGAATTCCGGTCTCCC
DNA 2: TGGTGGCTACGACGGGATT
B13: CUCUUAA (DNA:RNA)
RNA: B1 RNA with G25C, A28U, C30A, G31A
DNA 1: CAATCTGAATTCCGGTCTCCC
DNA 2: TGGTGGCTACGACGGGATT
B14: AGUUAUU (DNA:RNA)
RNA: B12 RNA with U25A, G27U, C28U, G30U
DNA 1: CAATCTGAATTCCGGTCTCCC
DNA 2: TGGTGGCTACGACGGGATT
B15: ACAACUA (DNA:RNA)
RNA: B1 RNA with G25A, U26C, C27A, U29C, C30U, G31A
DNA 1: CAATCTGAATTCCGGTCTCCC
DNA 2: TGGTGGCTACGACGGGATT
B16: GAACGAA (DNA:RNA)
RNA: B1 RNA with U26A, C27A, A28C, U29G, C30A, G31A
DNA 1: CAATCTGAATTCCGGTCTCCC
DNA 2: TGGTGGCTACGACGGGATT
B17: GGGACUG (DNA:RNA)
RNA: B1 RNA with U26G, C27G, U29C, C30U
DNA 1: CAATCTGAATTCCGGTCTCCC
DNA 2: TGGTGGCTACGACGGGATT
B18: CCCAAUG (DNA:RNA)
RNA: B1 RNA with G25C, U26C, U29A, C30U
DNA 1: CAATCTGAATTCCGGTCTCCC
DNA 2: TGGTGGCTACGACGGGATT
B19: UUAGUCG (DNA:RNA)
RNA: B1 RNA with G25U, C27A, A28G
DNA 1: CAATCTGAATTCCGGTCTCCC
DNA 2: TGGTGGCTACGACGGGATT
B20: UUGAGUC (DNA:RNA)
RNA: B1 RNA with G25U, C27G, U29G, C30U, G31C
DNA 1: CAATCTGAATTCCGGTCTCCC
DNA 2: TGGTGGCTACGACGGGATT

The binders below were run against T1, RBFOX1 RRM (assay: EMSA; HiTS-Eq, 1 nM pool, 10 min; buffer printed only for the single-RNA assays: 10 mM Tris pH 7.5, 150 mM NaCl, 3.4 mM EDTA, 0.001% NP-40, 30 C). Conditions: tags: His6 N-terminal (pET28a); label: 5' 32P.
Procedure, shortened: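 A pool of RNA with 7 randomized nucleotides, 5′-radiolabelled and with DNA-annealed flanks, was equilibrated at 1 nM for 10 min in 50 µL with purified RbFox RRM, wild type or mutant, across increasing protein concentrations. Free RNA was separated by 8% native PAGE, excised, reverse-transcribed, barcoded by PCR and sequenced. Relative association constants were obtained from read-count changes of each RNA species versus the control reaction and normalised to the cognate motif.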
In the case of B1, the binding signal is reported as 0.00989 KA relative to UGCAUGU.
In the case of B2, the binding signal is reported as 0.015 KA relative to UGCAUGU.
In the case of B3, the binding signal is reported as 0.0134 KA relative to UGCAUGU.
With B4 the binding signal was 0.0032 KA relative to UGCAUGU.
B5 was tested, and the binding signal was 0.00367 KA relative to UGCAUGU.
With B6 the binding signal was 0.00905 KA relative to UGCAUGU.
With B7 the binding signal was 0.0158 KA relative to UGCAUGU.
In the case of B8, the binding signal is reported as 0.0198 KA relative to UGCAUGU.
B9 was tested, and the binding signal was 0.0102 KA relative to UGCAUGU.
B10 was tested, and the binding signal was 0.00736 KA relative to UGCAUGU.
B11 was tested, and the binding signal was 0.0085 KA relative to UGCAUGU.
In the case of B12, the binding signal is reported as 0.0192 KA relative to UGCAUGU.
In the case of B13, the binding signal is reported as 0.00101 KA relative to UGCAUGU.
B14 was tested, and the binding signal was 0.00441 KA relative to UGCAUGU.
For B15, the binding signal was 0.000157 KA relative to UGCAUGU.
For B16, the binding signal was 0.0149 KA relative to UGCAUGU.
In the case of B17, the binding signal is reported as 0.0322 KA relative to UGCAUGU.
For B18, the binding signal was 0.016 KA relative to UGCAUGU.
For B19, the binding signal was 0.0165 KA relative to UGCAUGU.
For B20, the binding signal was 0.0173 KA relative to UGCAUGU.
